# Experimental data reported in ChEMBL document CHEMBL4888484, “Replenishing the malaria drug discovery pipeline: Screening and hit evaluation of the MMV Hit Generation Library 1 (HGL1) against asexual blood stage Plasmodium falciparum ,using a nano luciferase reporter read-out” (2022).
# In all, about 150,000 compounds went through this assay and about 540 (0.36%) showed an effect of 50% or more. The list shows a part of the results.
# Test system: Plasmodium falciparum
# Assay: Primary screen in NF54 nanoGlo assay, in single point, at 2uM, 72h; a lower Z score goes with more inhibition
# Type: functional, Erythrocyte
# Settings: timepoint 72 hour
Compound,% Inhibition [%],Z score
CCN(CC)C(=O)N1C[C@H](NC(=O)c2cn(C)c(=O)[nH]c2=O)[C@@H](C2CC2)C1,5,-0.93
CCOc1ccc(NC(=O)[C@@H]2Oc3ccccc3NC2=O)cc1,-13,1.55
COc1cc(NC(=O)c2ncoc2C(C)C)cc(-n2cnnn2)c1,5,-1
CC(C)(C)c1nsc(N2CCO[C@H](c3nccs3)C2)n1,-3,0.53
N#Cc1ccc(NCCc2cnn(-c3ccccc3)c2)nc1,-8,0.82
Cc1cccnc1N1CCN(C(=O)c2ccc(-c3ccccc3)n2C)CC1,-10,1.86
CCS(=O)(=O)N1CCCC[C@H](c2ccccc2)C1,-11,1.65
CN1CCN(C(=O)[C@H]2CCc3sc(C(=O)N4CCCCC4)cc3C2)CC1,30,-3.39
O=S(=O)(Oc1c(F)c(F)c(F)c(F)c1F)c1ccnc2ccccc12,-7,0.92
Cc1c(CN(CCCO)Cc2cccnc2)oc2ccccc12,-9,1.73
Cc1nn(C)c(C(=O)NCCS(=O)(=O)N(C)C)c1Cl,-6,1.08
CC(C)(C)OC(=O)N1CCC(CC(=O)N2CC(Nc3ccncn3)C2)CC1,0,0.07
Cn1c(COc2ccc(C(=O)NC3CC3)cc2)cc(=O)n(C)c1=O,5,-0.9
Cn1cc(C(=O)N2CCC[C@H]2c2nnc(C3CCOCC3)[nH]2)cn1,4,-0.58
CCC[C@H]1C=CCN1C(=O)c1nn2cc(C)cnc2c1Cl,0,0.01
O=C(Nc1nc(CC2CC2)ns1)c1occ2c1CCC2,-7,0.8
O=C(Cn1nc2ccc(C(=O)NCc3ccccc3)cn2c1=O)NCCC1=CCCCC1,-26,2.29
CCC(=O)NCc1cccc(-n2ccnc2-c2cccnc2)c1,2,-0.39
Cc1cc(Cn2cc(-c3cccc(-c4ccco4)c3)nn2)n[nH]1,3,-0.29
C[C@@H](Cn1ccc2ccccc21)NCC(=O)Nc1cnccn1,-1,0.19
COc1cccc(Cn2ncc(N(C)Cc3ccccc3)cc2=O)c1OC,-5,1.02

Compound,% Inhibition [%],Z score
CN1CCN(c2cc(N3CCN(C(=O)Cc4ccccc4)CC3)ncn2)CC1,-10,0.91
Nc1cc(C2CCN(C(=O)c3ccccc3Br)CC2)no1,-5,0.75
CN(Cc1csc(-c2ccccc2)n1)C(=O)[C@@H]1Cc2ccccc2C(=O)N1,3,-0.51
CC(C)(C)c1nc2ccc(S(=O)(=O)N3CCC(CN)CC3)cc2s1,7,-1.01
CO[C@H]1CCCN(Cc2cc3cc4c(cc3nc2-c2ccc(Cl)cc2)OCO4)C1,-2,0.24
C=CCN(C)C(=O)c1ccc(S(=O)(=O)N2C[C@H]3CCC[C@@]3(CO)C2)cc1,-14,1.39
O=C1O[C@H]2CN(C3Cc4ccccc4C3)C[C@H]2N1C1CCCC1,-5,0.92
Fc1cccc2c1N(Cc1nc3ccccc3o1)CCC2,-9,1.39
CN(Cc1cn(C)nn1)Cc1nccn1CC(F)(F)F,6,-0.62
O=C1CC(C(=O)N[C@@H](Cc2ccccc2)c2nc3ccccc3o2)C1,-9,1.26
O=C(Nc1ccccc1Oc1ccccc1)c1ccno1,-13,2.04
CCCN(CC1CC1)c1nnc([C@H]2CCCO2)n1Cc1cccs1,-5,1.04
Cc1ccc2c(c1)N(Cc1ccccc1F)N=C(C(=O)N1CCCCCC1)S2(=O)=O,-7,0.83
Cc1nc2cc(C(=O)OCC(=O)N3CCC(Cc4ccccc4)CC3)ccc2n1-c1ccccc1,1,-0.14
O=C(Nc1ccccc1N1C(=O)c2ccccc2C1=O)c1ccco1,34,-3.8
CC(=O)Nc1ccc(S(=O)(=O)Nc2cccn3ncnc23)cc1,-7,0.79
CCCn1ccnc1CN(Cc1nccs1)C1CC1,7,-0.68
c1cncc(-c2nc3c(c(NCc4ccc5c(c4)OCO5)n2)CNC3)c1,2,-0.39
CC(C)n1nnnc1CN1CC[C@H](c2ccccc2)C1,10,-1.17
Fc1cncc(Br)c1CNC1CCCC1,15,-1.91
c1ccc(OCCNCC2CCCCC2)nc1,-1,0.15

Compound,% Inhibition [%],Z score
CC[C@@H](c1cccnc1)N(C)CC(=O)Nc1cn(C)nc1C,-10,1.83
CCc1oc2c(NC(=O)N3CCOC[C@@H](CO)C3)cc(Cl)cc2c1C,0,-0.06
C[C@@H](C(=O)NC(C)(C)C)N1CCCCC1,3,-0.3
CC(C)(C)OC(=O)N[C@H]1CCN(C(=O)Cc2ccccc2O)C1,-9,0.88
Cc1nc2c(OCc3ccn(C4CCCC4)n3)cccc2o1,-14,1.46
NC(=O)c1cccnc1N[C@H]1CC(=O)N(CC2CCCCC2)C1,-7,1.43
CCn1ncc(C2=NO[C@H](C(=O)Nc3cccnc3)C2)c1C,-12,2.21
O=C1CCC(N2CCCC3(CCCN(Cc4ccccc4)C3)C2)CCN1Cc1ccc(F)cc1F (stereo not drawn),5,-0.54
C=Cc1ccc(C(=O)N2C[C@@H]3CC[C@H]2CN(C)C3)cc1,-3,0.54
O=S(=O)(c1ccc2ccccc2c1F)N1CC(CO)C1,36,-4.07
CN1Cc2cc(OCC3(O)CCOCC3)ccc2C1=O,38,-5.54
CCc1n[nH]c(NC(=O)C(C)(C)C)c1Br,-1,0.11
CCCCc1nc(C)cc(NC[C@H]2CCN(S(=O)(=O)CCCC)C2)n1,7,-0.84
COc1cc(Br)cc2c1O[C@]1(C)C[C@@H]2NC(=O)N1c1ccc(C)cc1,-17,2.67
Cc1cccc2c1nc1n2[C@@H](CNC(=O)c2ccc3c(c2)OCO3)COC1,27,-3.1
COc1ccc(-c2nc3ccc(Cc4ccc5nc(-c6ccc(OC)cc6)c(-c6ccc(OC)cc6)nc5c4)cc3nc2-c2ccc(OC)cc2)cc1,11,-2.21
CC(C)(C)CC(=O)N1CC(N2C(=O)COC2=O)C1,-2,0.19
CCc1cc(CN2CCC3(CC2)Cc2cccc(c2)Oc2ccc(cc2)C[C@@H](C(=O)O)NC(=O)CCNC3=O)on1,-2,0.34
CCOC(=O)CN(C(=O)COc1cccc(C)c1)c1ccc(F)cn1,-19,2.91
O=C([C@H]1CCOC1)N1CCCn2nc(-c3ccc(Cl)cc3)cc2C1,-8,1.3
CCC1(CO)CCCN(C(C)C(N)=O)C1 (stereo not drawn),9,-1.79

Compound,% Inhibition [%],Z score
NC(=O)N1CCCC1CC1CCCc2ccccc21 (stereo not drawn),-5,0.63
C[C@H]1CCCN(C(=O)CN(C)C2CCN(Cc3ccccc3)CC2)C1,13,-1.74
Nc1ccc(-c2nc(-c3ccccc3)c3cc(-c4c5ccccc5c(-c5ccc6nc(-c7ccc(N)cc7)nc(-c7ccccc7)c6c5)c5ccccc45)ccc3n2)cc1,-4,0.77
COc1cc(C)n(CCNC(=O)CCc2ccc(Cl)c(C(F)(F)F)c2)c(=O)c1,-12,2.21
Cc1cc2c(c(-c3ccc(-c4csc(N)n4)cc3)c1)O[C@@H](CN)C2,-6,0.98
Cc1cc(C)c(CN2CCS(=O)(=O)CC2)cc1CN1CCC(C)CC1,5,-0.64
O=C(COc1ccccc1F)NC1CCN(c2cnsn2)CC1,-21,2.67
CC(C)N(C)c1ccccc1CNC(=O)Cc1cscn1,-9,1.38
C[C@@H]1CN(C(=O)c2nc3ccc(Cl)cn3c2CNCCc2cn[nH]c2)C[C@H](C)O1,-11,1.95
CC(NC(=O)c1ccnn1C)C1CCCO1 (stereo not drawn),-5,0.73
NC(=O)C1(NCc2ccon2)CCCCC1,-7,1.29
CCc1cc2c(N3CC[S+]([O-])CCC3C)ncnc2s1 (stereo not drawn),0,0
Cc1ccc(OCC(=O)N2CCC(C)(c3nc(C)no3)CC2)cc1,-1,0.19
CCn1ncnc1CN1CCN(c2cccc(OC)c2)C(C)(C)C1,3,-0.54
CCn1ccc(CN2CCC(CNC(=O)[C@@H]3CCCCN3C(=O)OC)CC2)n1,-3,0.49
CCS(=O)(=O)N(CCc1cccs1)Cc1cc(C)on1,-7,0.91
Cc1ccc(C(=O)Nc2ncnc3c2c(-c2ccc(C)cc2)nn3C(C)(C)C)cc1,-6,0.78
Cc1c(C(=O)N[C@@H](C)COCC(C)C)nnn1-c1cccc2ncccc12,11,-1.13
CC(=O)N1CCN(C(=O)CC[C@@H](C)[C@H]2CC[C@H]3[C@@H]4[C@@H](O)C[C@@H]5C[C@H](O)CC[C@]5(C)[C@H]4CC[C@]23C)CC1,-5,0.78
Cc1cc2nc(C)c(=O)n(CC(=O)NCCCN(C)Cc3ccccc3)c2cc1C,-15,1.92
CC1(C)CCN(C(=O)c2ccoc2C2CC2)CCS1(=O)=O,-5,0.74
